Molecules are shown by their SMILES. About 1,700 (3.3%) of roughly 52,000 compounds were called active. Cut-off read from the data, not from the text of the source: active = survival mostly below about 52% (no sharp cut-off); inactive = mostly above about 56%. This is one part of the list.

The test system of the experiment is Wild type. Nature of the experiment: growth inhibition of S. aureus wild type versus tarO mutant, primary screen, teichoic acid synthesis inhibitors, RN4220, OD600 (AID 463173). To be noted: S. aureus RN4220 wild type/DeltatarO growth, OD600, 18 h, hits give low values, screened at 18.75 µg/mL (by protocol).
Regarding `O=C(NCC(c1cccnc1)N1CCN(Cc2ccccc2)CC1)C(=O)Nc1ccc(F)cc1` (configuration not stated), the survival is inactive: 99%.
Regarding `COc1cccc(CNC(=O)C2CCCN(c3nnc(-n4c(C)ccc4C)s3)C2)c1` (configuration not stated), the survival is inactive: 81%.
On to `Cc1cc(C)c(S(=O)(=O)Nc2ccc(-c3ccc(N4CCCCC4)nn3)cc2)cc1C`, for which the survival was inactive: 53%.
Then `CCOC(=O)N1CCN(CCC(=O)Nc2cc(C)ccc2C)CC1`, with inactive: 72%; and `CC(C)c1ccc(NC(=O)CN(C)S(=O)(=O)c2ccc3c(c2)n(C)c(=O)c(=O)n3C)cc1`, with inactive: 73%; and `CCn1cnc2cc(NCc3ccc(N(C)C)cc3)ccc21`, with inactive: 94%.
In the case of `O=C(NC(=S)Nc1ccc(N2CCOCC2)cc1)c1ccccc1` it was inactive: 97%; in that of `CCC1CCCCN1C(=O)CSc1nc(-c2ccc(OC)cc2)cc(C(F)(F)F)n1` (configuration not stated), active: -6%.
`CCOc1ccc(C(=O)Nc2ccc3nc(SCC(=O)N4CCCC4)sc3c2)cc1`: the survival was inactive: 89%.
Then `CCc1ccc(CNC(=O)c2cnc3sc(N4CCCCCC4)nn3c2=O)cc1`, with inactive: 72%; and `CCn1cc2nc(SCC(=O)Nc3cccc(Cl)c3C)n(Cc3ccc(Cl)cc3)c(=O)c2n1`, with inactive: 52%; and `COc1ccc(C(=O)NCc2nnc(SCC(=O)Nc3ccc(C)cc3)n2-c2ccccc2)cc1`, with inactive: 135%.
Consider `CCc1ccc(CNC(=O)c2ccc(NC(=O)N3CCSc4ncccc43)cc2)cc1`, for which the survival was inactive: 81%.
Consider `O=C(CSc1nc2ccccc2c(=O)n1Cc1ccco1)N(c1ccccc1)c1ccccc1`, for which the survival was inactive: 114%.
In the case of `CCc1nc2nc(C)cc(Nc3cc(Cl)ccc3OC)n2n1`, the survival was inactive: 70%.
In the case of `Cc1ccc(SCC(=O)Nc2ccc3oc(-c4ccc(F)cc4)nc3c2)cc1` it was inactive: 87%; in that of `O=C(Nc1cccnc1)c1cccs1`, inactive: 120%.
Consider `CCOc1ccc(CNC(=O)CCc2c(C)nn(-c3ccc(N4CCOCC4)nn3)c2C)cc1`, for which the survival was inactive: 71%.
Turning to `Cc1cc(C(F)(F)F)n2nc(C(N)=O)cc2n1`, the survival was inactive: 103%.
In the case of `Cc1ccc(S(=O)(=O)N2CCC(c3nnc(-c4cccc(C)c4)o3)CC2)cc1` it was inactive: 76%; in that of `CCOc1ccc(CCNC(=O)c2ccc(C)c(-n3cnc4cccnc43)c2)cc1`, inactive: 67%.
With `CC(C)NC(=O)Cn1c(=O)nc(-c2ccccc2)c2ccccc21`, the survival was inactive: 72%.
In the case of `Cc1cccc(N(C)C(=O)CS(=O)(=O)c2cccc3nsnc23)c1` it was inactive: 58%.
In the case of `Cc1ccc(C(C)C)c(OCc2ccc(C(=O)Nc3ccc(S(N)(=O)=O)cc3C)o2)c1` it was inactive: 30%.
For the compound `COc1cccc(CNC(=O)c2ccc3c(Cl)c4c(nc3c2)CCCC4)c1`, the survival is inactive: 60%.
In the case of `CCOc1ccc(Nc2cc(C)c(C#N)c3nc4ccccc4n23)cc1` it was inactive: 76%.
With `O=C(CSc1ncn[nH]1)Nc1nccs1`, the survival is inactive: 113%.
On to `Cc1ccc(S(=O)(=O)c2nc(-c3ccco3)oc2SCC(=O)c2ccc(Cl)cc2)cc1`, for which the survival was inactive: 73%.
In the case of `O=C(OCc1ccco1)c1ccc2c(c1)N(Cc1ccc([N+](=O)[O-])cc1)C(=O)c1ccccc1S2` it was inactive: 92%.
In the case of `O=C(CN1C(=O)COc2ccc(S(=O)(=O)N3CCCC3)cc21)NCCc1ccc(Cl)cc1` it was inactive: 128%; in that of `Oc1ccccc1-c1nc(/C=C/c2ccccc2)nn1-c1ccccc1`, active: 2%; in that of `CCOC(=O)c1c(NC(=O)c2ccccc2C)sc2c1CCCC2`, active: -8%.
Regarding `Cc1nc(-n2nc(C)c(CCC(C)C)c2C)sc1C(=O)Nc1cccc(Cl)c1C`, the survival was inactive: 87%.
Turning to `c1ccc(N(c2ccccc2)c2nc(-n3nnc4ccccc43)nc(-n3nnc4ccccc43)n2)cc1`, the survival was inactive: 103%.
In the case of `CC1CCN(c2nn3c(=O)c(C(=O)NCCc4ccc(Cl)cc4)cnc3s2)CC1` it was inactive: 66%; in that of `COc1ccc2oc(=O)cc(CN3CCN(C(=O)c4ccccc4Br)CC3)c2c1`, inactive: 72%.
Take `COc1ccccc1/C=N\NC(N)=S`: the survival was inactive: 109%.
Turning to `O=c1[nH]c2ccc(NS(=O)(=O)c3ccc(F)cc3)cc2s1`, the survival was inactive: 71%.
In the case of `CCOc1ccc2nc(N3CCN(C(=O)C(C)C)CC3)sc2c1` it was inactive: 72%; in that of `Brc1ccc(-c2nc(N3CCN(c4ccccc4)CC3)c3ccccc3n2)cc1`, inactive: 127%; in that of `Cn1nnnc1SCCCNCc1ccc(-c2cccc(Cl)c2)o1`, inactive: 105%.
In the case of `O=c1cc2nc(-c3ccccc3F)nc(SCc3ccc(Br)cc3)n2[nH]1` it was active: -2%.
In the case of `Cc1cccc(Cn2c(SCc3ccc(C(=O)NCc4cccs4)cc3)nc3cccnc32)c1` it was inactive: 79%; in that of `Cc1ccccc1-n1c2nc(=O)[nH]c(=O)c-2cc2c(Cl)cccc21`, inactive: 85%.
On to `COc1ccc(NC(=O)CSc2nnc(-c3nonc3NC(C)=O)n2C)cc1Cl`, for which the survival was inactive: 95%.
In the case of `CCN(CC)CCCNC(=O)C(C)n1nc(C)n2c(cc3occc32)c1=O` (configuration not stated) it was inactive: 83%; in that of `Cc1c(Cl)cccc1NC(=O)CCn1cnnn1`, inactive: 68%; in that of `COc1ccc(Cl)cc1NC(=O)COC(=O)CC(C)(C)CC1=NS(=O)(=O)c2ccccc2N1`, inactive: 81%.
For `COC(=O)c1cc(C)nc2c1c(=O)nc(SCc1cccc(C(F)(F)F)c1)n2C1CC1`, the survival was inactive: 91%.
In the case of `COCCCN1C(=O)c2[nH]nc(-c3ccccc3O)c2C1c1ccc(OC)cc1` (configuration not stated) it was inactive: 85%.
Then `CC(C)c1ccc(NC(=O)c2cc(S(=O)(=O)NC3CCCCC3)ccc2F)cc1`, with inactive: 81%; and `O=C(C1CCC(CNS(=O)(=O)c2cccs2)CC1)N1CCN(c2ccc(Cl)cc2)CC1` (configuration not stated), with inactive: 47%.
Then `COC(=O)c1ccccc1NC(=O)CN(c1ccc(Cl)cc1)S(=O)(=O)c1ccc(OC)cc1`, with inactive: 84%.
For `COc1ccc(CCNC(=O)Cn2c(=O)nc(-c3ccccc3F)c3cc(Cl)ccc32)cc1OC`, the survival was inactive: 90%.
In the case of `Cc1ccc2[nH]c(CSc3nnc(C)s3)cc(=O)c2c1` it was inactive: 71%.
For `Cc1cc(N)c(O)cc1C`, the survival was inactive: 94%.
For the compound `CCOc1ccccc1NC(=O)C1CCN(S(=O)(=O)c2cccc3nonc23)CC1`, the survival is inactive: 76%.
As to `NC(=O)C1CCN(C(=O)C2CCN(S(=O)(=O)c3ccc(-n4cnnn4)cc3)CC2)CC1`, the survival is inactive: 112%.
`COc1ccc(S(=O)(=O)Nc2ccc(S(=O)(=O)N3CCCC3)cc2)cc1C`: the survival is inactive: 104%.
`O=C(Nc1cc(-c2ccc(F)c(F)c2)no1)c1ccccc1F`: the survival is inactive: 92%.
Then `Cc1cccc(N2CCN(C(=O)C3CCCN(C(=O)c4cc5sccc5n4C)C3)CC2)c1C` (configuration not stated), with inactive: 68%; and `COc1ccc(N2CCN(c3ncnc4onc(C)c34)CC2)cc1`, with inactive: 76%; and `CCOc1ccc(CCNC(=O)Cn2ccc3cc(S(=O)(=O)N4CCCCCC4)ccc32)cc1`, with inactive: 134%.
Then `CCC1CN(C(=O)C2CCN(S(=O)(=O)c3c(C)noc3/C=C/c3ccc(C)cc3)CC2)c2cc(C)ccc2O1` (configuration not stated), with inactive: 74%; and `CC1=C(C(=O)Nc2ccc(F)cc2)C(c2ccc(N(C)C)cc2)NC(=O)N1` (configuration not stated), with inactive: 129%.
Consider `COCCNC(=O)CCn1c(=O)[nH]c2cc(OC)c(OC)cc2c1=O`, for which the survival was inactive: 75%.
Then `N=C1SCC(=O)N1c1nc(-c2ccccc2)cs1`, with inactive: 114%; and `COc1ccc(NC(=O)C(=O)c2cc(C)n(-c3ccc(C)cc3)c2C)cc1Cl`, with inactive: 86%.
With `O=C(Nc1ccc(C(F)(F)F)cc1)C1(c2cccs2)CCOCC1`, the survival was inactive: 82%.
Turning to `CCCOC(=O)c1cccc(Nc2nc(C(=O)OCC)nc3ccccc23)c1`, the survival was inactive: 44%.
In the case of `CCC1CN(C(=O)N2CCC(C(=O)NCc3ccccc3F)CC2)c2ccccc2O1` (configuration not stated) it was inactive: 98%.
Then `CC1CCCN(c2ncnc3c2nnn3C)C1` (configuration not stated), with inactive: 59%.
Then `CCOc1ccc(NC(=O)c2cc(S(=O)(=O)N3CCC(C)CC3)cn2C)cc1`, with inactive: 118%.
For `COc1ccc(CNC(=O)Cc2ccc(NC(=O)N3CCCCc4ccccc43)cc2)cc1`, the survival was inactive: 93%.
In the case of `Cc1ccc(NC(=O)c2c(C)oc3ncnc(N4CCCCC4)c23)c(C)c1` it was inactive: 120%; in that of `CC(Oc1ccccc1F)C(=O)NCC1(N2CCOCC2)CCCCC1` (configuration not stated), inactive: 86%; in that of `O=c1nc2ccccn2c2c1c(=O)[nH]c1ccccc12`, inactive: 98%.
In the case of `CC1CCN(CN2C(=O)CCC2=O)CC1` it was inactive: 102%; in that of `CC1=C2C(N)=C(C(=O)Nc3ccccc3)SC2NC(C(F)(F)F)=C1` (configuration not stated), inactive: 114%; in that of `CCOc1ccccc1C(=O)N=C1NC(=O)CS1`, inactive: 97%.
In the case of `Cc1cc(C)cc(NC(=O)c2cc(S(=O)(=O)N3CCCCC3)c[nH]2)c1`, the survival was inactive: 88%.
In the case of `CCc1ccc(NC(=O)c2sc3nc(C)cc(C)c3c2NC(=O)c2ccccc2)cc1` it was inactive: 68%; in that of `COc1ccc(CNC(=O)C2CCN(c3nnc(C)c4c(C)n(-c5ccc(C)cc5)nc34)CC2)cc1`, inactive: 119%; in that of `Cc1cc(=O)n2[nH]c(CC(=O)O)nc2n1`, inactive: 112%.
Then `Cc1ccccc1NC(=O)C1CCN(S(=O)(=O)c2cccc3nonc23)CC1`, with inactive: 121%.
In the case of `COc1cccc(CNC(=O)Nc2ccc3c(c2)N(C)C(=O)c2ccccc2S3)c1` it was inactive: 78%; in that of `Cc1ccc(-c2nn3c(C)nnc3c3ccccc23)cc1S(=O)(=O)NC(C)(C)CO`, inactive: 89%; in that of `COc1ccc(OC)c(-c2cc(C(=O)NCc3ccc(Cl)cc3)no2)c1`, inactive: 85%.
`CCOc1ccc(N(C)S(=O)(=O)c2cc(-c3cnc(C)o3)ccc2OC)cc1`: the survival was inactive: 54%.
Take `O=C(Nc1nnc2n1CCS2)c1cc(C(F)(F)F)cc(C(F)(F)F)c1`: the survival was inactive: 80%.
Then `Cc1ccc(C)c(NC(=O)Cn2cc(S(=O)(=O)c3ccc(F)cc3)c(=O)c3cc(F)ccc32)c1`, with inactive: 89%; and `COc1ccc(/C=C/C(=O)Nc2cccc(F)c2)cc1`, with inactive: 62%.

Source of the values: PubChem BioAssay AID463173 (ICCB-Longwood Screening Facility, Harvard Medical School, 2010).
